Results as given in the supplement of paper PMC11417369.
± gives the standard deviation of the averaged measurements. This is one part of the list.

The sequences below were run on PfAP2-G AP2 domain (GST-tagged) (assay: gcPBM binding intensity (ln(normalized median fluorescence intensity)); higher = stronger DNA binding).
Outline: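 Binding intensity is the highest Masliner-normalised natural-log median intensity over replicate spots in either probe orientation. To obtain it, GST-tagged P. falciparum DNA-binding domains made in E. coli were incubated for 1 h on an Agilent 4 × 180k array of primer-extended double-stranded 36-bp intergenic genomic probes plus negative controls. Detection used Alexa488 anti-GST antibody with scanning at 488 nm.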

Row | Sequence | gcPBM binding intensity (ln)
1 | GTGTATAATATAGGATGTACAATAAAACACCGATTG [XGTACX_site7429] | 11.1 ± 0.71
2 | ATTTAAATATCTTCTTTTTTTTTTTTTTTTGAAATT [CACACA_negctrl_site1074] | 9.53 ± 0.085
3 | AAATAATGAAACAAAGTGCATAAAAATATACATATA [GTGCAC_site9467] | 9.96 ± 0.071
4 | ATGGATTATACGTGCACACATATATACCAATAAATA [CACACA_site4524] | 10.7 ± 0.58
5 | CATTAAAATATGAGATGTACACAATATCTATTATAT [XGTACX_site4979] | 11.4 ± 0.67
6 | ATTATTTTCTCATAGAGTACAAATGTTGTTGTTGTC [XGTACX_site1062] | 11.1 ± 0.86
7 | TATTTTCATAATAAAAAAAAATAATTTAAAAAATAT [CACACA_negctrl_site748] | 9.595 ± 0.007
8 | TGTTATATGTTCAAATGTACAAATCATATACATGTT [XGTACX_site3192] | 10.6 ± 0.38
9 | GTGTACAGACACAAAATATATACATATATATATATA [CACACA_negctrl_site1796] | 10.8 ± 0.81
10 | AATATATAAACCGAACGTACATATTTTTTATACACC [XGTACX_site2121] | 11.1 ± 0.53
11 | AATTATATTTGAAATACACACATAAAAATCATATAG [CACACA_site3468] | 9.98 ± 0.028
12 | CTTATTGATTTAAAAAGTACATATATGTATATACAC [XGTACX_site4072] | 11.5 ± 0.83
13 | AAAAAAAAAAAAAATACACACATATAAATATAAATA [CACACA_site6189] | 9.91 ± 0.21
14 | AGATTTAAATATCATACACACTTTATATATAATACA [CACACA_site4688] | 9.99 ± 0.23
15 | ATTAGAGAATCGTAACCCAAATGAACATACTTAAAT [GTGCAC_negctrl_site363] | 10.04 ± 0.035
16 | TGTGCACATAATTAGTGTACATTTTTTATTTAGACA [XGTACX_site317] | 11.4 ± 0.93
17 | AATGGCAAAATAGGCACACACACATATACATATATA [CACACA_site1058] | 10.2 ± 0.29
18 | CATATTTACATTAAGTGTACTTATGAATATATATAC [XGTACX_site7962] | 11.3 ± 0.79
19 | ATAATATTTTATAATTGTACTTTTTATAAATATAAA [XGTACX_site1940] | 11.3 ± 0.99
20 | AAAATACATATATATATATATAATATTGTTGTTAAA [GTGCAC_negctrl_site519] | 9.595 ± 0.007
21 | ATATTTTTTTTCATTTGTACACATAAAATTATATAG [XGTACX_site8260] | 11.5 ± 1
22 | AATATTTTATTTTTTCTCATTAAAAATTTTTTTTTT [CACACA_negctrl_site364] | 9.67 ± 0.23

Row | Sequence | gcPBM binding intensity (ln)
23 | GATAGATAATATTTTAGTACATAAACAATTAAATAT [XGTACX_site4125] | 11.1 ± 0.86
24 | TTTTTATTTTTAGTAGTGCATTAATCATATGGTCAT [GTGCAC_site9879] | 10.5 ± 0.44
25 | TAAATAAATCCACATACACACACGACGCTAGTATAT [CACACA_site1060] | 10.02 ± 0.092
26 | ATTATTCGTTTTAAATGTACTCATATAAACGATAAA [XGTACX_site7866] | 11.4 ± 1.2
27 | CAAAAGAAGGTAAACACACACACACCCATACAAAAA [CACACA_site3765] | 10.4 ± 0.38
28 | TGAGACATGAATGCAAGTACAAAAAGGAGAACAAAA [XGTACX_site6183] | 11.2 ± 0.62
29 | TACATATATTTTTTATGTACTTACTTGTGTGTTTAT [XGTACX_site5126] | 11.4 ± 0.93
30 | TACAGAAATTTATATATATATATATATATATATATA [XGTACX_negctrl_site209] | 9.81 ± 0.68
31 | AAATCAAAAACGTTTACACACATTCTTATTTAAATA [CACACA_site790] | 10.04 ± 0.078
32 | AATAATTGCTAAAGGTGTACAATACGTATATAAGAA [XGTACX_site4910] | 11.6 ± 0.96
33 | TTTTATAATTTCAAAGGATTCTTTAATATTATAAAT [CACACA_negctrl_site1812] | 9.595 ± 0.021
34 | AAATTATATATAATAAATAATTTCTTTTTCTAAAAG [CACACA_negctrl_site8] | 9.68 ± 0.16
35 | AAAAAAAAAAAAAAAAGTACACACTTTTGCCTACAT [XGTACX_site6583] | 11.6 ± 0.86
36 | TTAATAACAAAATAAACACACATATATAAATACACA [CACACA_site6849] | 9.94 ± 0.014
37 | TTATATTTTTTTTGTAGTACATTATAGAATACACAC [XGTACX_site969] | 11.6 ± 1
38 | TTAATCTTCATAAAATGTACAGAAGATTGAATATTC [XGTACX_site6213] | 10.7 ± 0.54
39 | TGAAAGTGTATTAAAGTGCATATTATTTTATCTACC [GTGCAC_site9969] | 10 ± 0.18
40 | AAATGTTGAAATGATACACACATATATATATATATA [CACACA_site2517] | 10.2 ± 0.45
41 | TTTATTAAAACAAAATGTACACACATATAATTTAAT [XGTACX_site1637] | 11.2 ± 0.68
42 | TAAATTCTGTTTAAAAGTACAAATAATATTGTGCCT [XGTACX_site7805] | 11.1 ± 0.73
43 | CCTATTTATATATACACACACATATATAAATAAATA [CACACA_site2991] | 10.2 ± 0.36
44 | AATATACACATTGTGAAATAACAAAAAAGGCAAAAA [CACACA_negctrl_site1014] | 9.93 ± 0.042
